Laboratory results reported in the antibiotic and cytotoxicity screens of Wong et al. (2023).
The list shows a part of the results.

System: HSkMC (human skeletal muscle cells)
Test: cytotoxicity call (relative viability < 0.9)
Settings: 10 µM

| SMILES | cytotoxicity call |
| --- | --- |
| CCS(=O)(=O)Nc1ccc2c(c1)C(=O)N(C)[C@H]1CC[C@H](CC(=O)N[C@H]3CCN(Cc4ccccc4)C3)O[C@@H]1CO2 | inactive |
| C[C@H](CO)N1C[C@H](C)[C@@H](CN(C)S(=O)(=O)c2ccc(F)cc2)OCCCC[C@H](C)Oc2ccc(NC(=O)Nc3ccc4c(c3)OCO4)cc2C1=O | inactive |
| C[C@@H]1CN([C@@H](C)CO)C(=O)c2cc(NC(=O)c3ccncc3)ccc2O[C@@H](C)CCCCO[C@H]1CN(C)S(=O)(=O)c1cn(C)cn1 | inactive |
| CCCNC(=O)[C@@]1(Sc2ccc(C)cc2)CC(=O)N(C2CCCCC2)[C@@H]1c1ccc(CO)cc1I | inactive |
| Cc1noc(C)c1NC(=O)N(C)C[C@H]1Oc2ccc(NC(=O)Nc3cccc4ccccc34)cc2CC(=O)N([C@@H](C)CO)C[C@@H]1C | inactive |
| C[C@H](CO)N1C[C@H](C)[C@@H](CN(C)Cc2ccc(Cl)c(Cl)c2)Oc2ccc(NC(=O)Nc3ccc(F)cc3)cc2C1=O | inactive |
| Nc1nc(C(=CCC(=O)O)C(=O)NC2C(=O)N3C(C(=O)O)=CCSC23)cs1 (stereo not given) | inactive |
| C[C@H]1COC(=O)[C@H](Cc2ccc(F)cc2)CC=CC[C@@H](CC(=O)N[C@@H](CO)Cc2ccccc2)C(=O)N1 | inactive |
| Cc1ccc(S(=O)(=O)N(C)C[C@@H]2Oc3c(NS(C)(=O)=O)cccc3C(=O)N([C@@H](C)CO)C[C@@H]2C)cc1 | inactive |
| Nc1ncnc2c1nc(Br)n2[C@@H]1O[C@@H]2COP(=O)(O)O[C@H]2[C@H]1O | inactive |

System: HepG2
Test: cytotoxicity call (relative viability < 0.9)
Settings: 10 µM

| SMILES | cytotoxicity call |
| --- | --- |
| Cc1ccc(S(=O)(=O)N(C)C[C@@H]2Oc3ccc(NS(=O)(=O)c4cn(C)cn4)cc3C(=O)N([C@@H](C)CO)C[C@@H]2C)cc1 | inactive |
| CO[C@H]1CN(C)C(=O)c2cc(NS(=O)(=O)CC(F)(F)F)ccc2OC[C@@H](C)N(Cc2ccccn2)C[C@H]1C | inactive |
| C[N+]1(C)C[C@H](O)[C@H](C(=O)O)C1 | active |
| COc1ccc(S(=O)(=O)Nc2ccc3c(c2)CC(=O)N([C@H](C)CO)C[C@H](C)[C@H](CN(C)CC2CC2)O3)cc1 | inactive |
| O=C(C[C@H]1C[C@H]2c3cc(NC(=O)c4cccnc4)ccc3O[C@H]2[C@@H](CO)O1)NCc1cc(F)ccc1F | inactive |
| O=C(CNCCO)Nc1ccc(F)c(Cl)c1 | inactive |
| C[C@H](CO)N1C[C@H](C)[C@@H](CN(C)S(=O)(=O)c2ccc(F)cc2)Oc2c(NC(=O)C3CCOCC3)cccc2C1=O | inactive |
| COc1ccc(S(=O)(=O)N(C)C[C@H]2OCCCC[C@@H](C)Oc3ccc(NC(=O)C4CCCCC4)cc3C(=O)N([C@H](C)CO)C[C@@H]2C)cc1 | inactive |
| COc1ccc(S(=O)(=O)Nc2ccc3c(c2)CC(=O)N([C@@H](C)CO)C[C@H](C)[C@H](CN(C)Cc2ccc(Oc4ccccc4)cc2)O3)cc1 | inactive |
| C[C@@H]1CN([C@H](C)CO)C(=O)c2cccc(NC(=O)c3cnccn3)c2O[C@H]1CN(C)C(=O)Nc1ccc(F)cc1 | inactive |
| COc1ccc(NC(=O)Nc2ccc3c(c2)C(=O)N([C@@H](C)CO)C[C@H](C)[C@@H](CN(C)S(=O)(=O)c2c(C)noc2C)OCCCC[C@H](C)O3)cc1 | inactive |
| Cc1cc(C(=O)Nc2cccc3c2O[C@H](CN(C)C(=O)Nc2ccccc2)[C@H](C)CN([C@H](C)CO)C3=O)n(C)n1 | inactive |
| Cc1noc(C)c1NC(=O)N(C)C[C@H]1OCCCC[C@@H](C)Oc2ccc(NC(=O)C3CCCCC3)cc2C(=O)N([C@H](C)CO)C[C@H]1C | inactive |
| C[C@@H]1CCCCO[C@H](CN(C)S(=O)(=O)c2cccs2)[C@H](C)CN([C@@H](C)CO)C(=O)c2cc(NC(=O)Nc3ccc4c(c3)OCO4)ccc2O1 | inactive |
| O=C(C[C@@H]1CC[C@H]2[C@@H](COC[C@H](O)CN2S(=O)(=O)c2ccc(Cl)cc2)O1)N[C@H]1CCN(Cc2ccccc2)C1 | inactive |
| CC(C)CC#Cc1ccc2c(c1)O[C@@H](CN(C)C(=O)c1cccnc1)[C@@H](C)CN([C@@H](C)CO)S2(=O)=O | inactive |
| COc1ccc(CSCCN)cc1Cl | inactive |
| COc1ccccc1CN1C(=O)c2ccccc2[C@@]2(Cc3ccccc3N(CC(F)(F)F)C2=O)[C@@H]1c1ccc(CO)cc1 | inactive |
| Cc1noc(C)c1NC(=O)N(C)C[C@@H]1OCCCC[C@H](C)Oc2ccc(NC(=O)NC3CCCCC3)cc2C(=O)N([C@H](C)CO)C[C@@H]1C | inactive |
| C[C@H]1CN([C@@H](C)CO)C(=O)Cc2cc(NC(=O)Cn3cnnn3)ccc2O[C@@H]1CN(C)C(=O)Nc1ccc(C(F)(F)F)cc1 | inactive |

| SMILES | cytotoxicity call |
| --- | --- |
| CCS(=O)(=O)N1C[C@]2(CCN(CC2)C(=O)Nc2c(noc2C)C)c2c(n(c3cc(ccc23)OC)C)[C@H]1CO | inactive |
| Cc1ccc(S(=O)(=O)Nc2ccc3c(c2)C(=O)N([C@@H](C)CO)C[C@H](C)[C@H](CN(C)Cc2ccc(C(F)(F)F)cc2)OCCCC[C@H](C)O3)cc1 | inactive |
| C[C@H](CO)N1C[C@H](C)[C@H](CN(C)C(=O)Nc2ccc(C(F)(F)F)cc2)OCc2cn(nn2)CCCC1=O | inactive |
| C[C@@H]1CN([C@@H](C)CO)C(=O)c2cc(NC(=O)Nc3ccccc3)ccc2O[C@H]1CN(C)C(=O)Nc1cccc2ccccc12 | inactive |
| COc1ccccc1CNC(=O)C[C@@H]1C[C@@H]2c3cc(NC(=O)Nc4ccc(C(F)(F)F)cc4)ccc3O[C@@H]2[C@H](CO)O1 | inactive |
| OCCCn1cnnc1 | inactive |
| C[C@@H]1CCCCO[C@H](CN(C)C(=O)C2CCCCC2)[C@H](C)CN([C@@H](C)CO)C(=O)c2cc(NC(=O)C3CCCCC3)ccc2O1 | inactive |
| CC(C)(CO)C(O)C(=O)NCCC(=O)NCCSSCCNC(=O)CCNC(=O)C(O)C(C)(C)CO (stereo not given) | inactive |
| O=C(O)c1oc2ccccc2c1CSc1ccc(Cl)cc1 | inactive |
| C[C@@H]1CN([C@H](C)CO)C(=O)c2cccc(NS(=O)(=O)c3cn(C)cn3)c2O[C@@H]1CN(C)Cc1ccc2c(c1)OCO2 | inactive |
| CCS(=O)(=O)Nc1ccc2c(c1)C(=O)N(C)[C@H]1CC[C@H](CC(=O)N[C@H]3CCN(Cc4ccccc4)C3)O[C@@H]1CO2 | inactive |
| C[C@H](CO)N1C[C@H](C)[C@@H](CN(C)S(=O)(=O)c2ccc(F)cc2)OCCCC[C@H](C)Oc2ccc(NC(=O)Nc3ccc4c(c3)OCO4)cc2C1=O | inactive |
| C[C@@H]1CN([C@@H](C)CO)C(=O)c2cc(NC(=O)c3ccncc3)ccc2O[C@@H](C)CCCCO[C@H]1CN(C)S(=O)(=O)c1cn(C)cn1 | inactive |
| CCCNC(=O)[C@@]1(Sc2ccc(C)cc2)CC(=O)N(C2CCCCC2)[C@@H]1c1ccc(CO)cc1I | inactive |
| Cc1noc(C)c1NC(=O)N(C)C[C@H]1Oc2ccc(NC(=O)Nc3cccc4ccccc34)cc2CC(=O)N([C@@H](C)CO)C[C@@H]1C | inactive |
| C[C@H](CO)N1C[C@H](C)[C@@H](CN(C)Cc2ccc(Cl)c(Cl)c2)Oc2ccc(NC(=O)Nc3ccc(F)cc3)cc2C1=O | inactive |
| Nc1nc(C(=CCC(=O)O)C(=O)NC2C(=O)N3C(C(=O)O)=CCSC23)cs1 (stereo not given) | inactive |
| C[C@H]1COC(=O)[C@H](Cc2ccc(F)cc2)CC=CC[C@@H](CC(=O)N[C@@H](CO)Cc2ccccc2)C(=O)N1 | inactive |
| Cc1ccc(S(=O)(=O)N(C)C[C@@H]2Oc3c(NS(C)(=O)=O)cccc3C(=O)N([C@@H](C)CO)C[C@@H]2C)cc1 | inactive |
| Nc1ncnc2c1nc(Br)n2[C@@H]1O[C@@H]2COP(=O)(O)O[C@H]2[C@H]1O | inactive |
